# The whole screen tested about 410,000 compounds, of which about 6,400 (1.6%) were called active. The shares of active, inactive and inconclusive entries below differ from those in the screen. Calls come from the whole dose curve; as a rule, active = well fitted inhibition curve with a large enough effect; inconclusive = small, poorly fitted or top-dose-only effect; inactive = no such curve, though single readings can be large or run the other way. No potency is given beside an inconclusive call; the fits are too rough.
# Biological target: Glucagon-like peptide 1 receptor (Homo sapiens) (UniProt P43220)
# UniProt P43220, sequence (P43220 whole entry, looked up): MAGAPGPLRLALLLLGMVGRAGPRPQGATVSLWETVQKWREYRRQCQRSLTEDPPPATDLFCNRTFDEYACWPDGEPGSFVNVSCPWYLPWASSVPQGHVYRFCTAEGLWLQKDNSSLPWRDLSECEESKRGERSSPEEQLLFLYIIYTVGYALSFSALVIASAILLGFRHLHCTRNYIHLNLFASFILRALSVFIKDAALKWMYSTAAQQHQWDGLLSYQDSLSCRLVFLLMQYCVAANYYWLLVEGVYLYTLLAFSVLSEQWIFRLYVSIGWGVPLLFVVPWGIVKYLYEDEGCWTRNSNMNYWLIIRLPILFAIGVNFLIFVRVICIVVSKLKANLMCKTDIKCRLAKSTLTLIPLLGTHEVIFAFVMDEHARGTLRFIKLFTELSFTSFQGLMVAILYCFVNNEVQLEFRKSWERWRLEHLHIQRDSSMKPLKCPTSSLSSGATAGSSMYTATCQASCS
# Test: qHTS of GLP-1 Receptor Inverse Agonists (Inhibition Mode); note: nearly all actives have a fitted effect of over 55% in size
# Details: HEK293 GLP-1R CRE-luciferase, luminescence, 24 h, GLP-1R form is constitutively active; series mostly up to 38.3 µM
# In short: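 HEK293 cells stably co-expressing a cAMP-responsive luciferase reporter and constitutively active GLP-1R were seeded, incubated 12 h, then exposed to compounds for 24 h at 37 C. Luminescence was read 12 min after detection reagent; inverse agonists lower signal.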
# Potency is the fitted concentration of half-maximal effect; tags give direction and shape of the fitted curve.
row,SMILES,Potency
1,CCN1CCN(C(=O)c2ccc(COc3ccc(Cl)cc3)o2)CC1,"inconclusive [inhibitor, partial curve, poor fit]"
2,Cc1ccc(C(=O)Nc2cccc(Oc3ccccc3)c2)o1,"inconclusive [inhibitor, single point]"
3,N#CC1(c2ccccc2)CCC(NCCc2ccccc2)CC1 (centres undefined),"inconclusive [inhibitor, single point]"
4,Clc1nc(CN2CCCCC2)nc2sc3c(c12)CCCC3,"inconclusive [inhibitor, single point]"
5,CCOc1ccc2nc(COC(=O)c3cccc([N+](=O)[O-])c3)c(C(C)=O)[n+]([O-])c2c1,"inconclusive [inhibitor, full curve, poor fit]"
6,COc1ccc(CC(N)c2csc(NC(=O)Cc3ccccc3)n2)cc1 (centres undefined),"inconclusive [inhibitor, partial curve]"
7,CCN(c1nc(N)c(C(=O)N=C(N)N)nc1Cl)C(C)C,"inconclusive [inhibitor, partial curve, poor fit]"
8,COC(=O)c1c(-c2ccc(Br)cc2)csc1NC(=O)Cc1ccc(OC)c(OC)c1,"inconclusive [inhibitor, single point]"
9,CC(C)[C@H](NC(=O)c1ccccc1F)C(=O)NC1CCCCCCC1,"inconclusive [inhibitor, partial curve, poor fit]"
10,Cc1ccc(N2C(=O)c3cccc4c(Oc5ccccc5[N+](=O)[O-])ccc(c34)C2=O)c(C)c1,"inconclusive [inhibitor, full curve, poor fit]"
11,CCOc1ccc(CCNC(=O)CN2C(=O)COc3ccc(S(=O)(=O)N4CCCCCC4)cc32)cc1,"inconclusive [inhibitor, single point]"
12,CCn1c2ccccc2c2cc(/C=N/NC(=O)c3cc(O)cc(O)c3)ccc21,"inconclusive [inhibitor, full curve, poor fit]"
13,Cc1ccc(NC(=O)c2c(NC(=O)Cc3ccccc3)sc3c2CCCC3)cc1,inactive
14,Cc1cc(C)n(/N=C/c2cc(Cl)cc(Cl)c2O)c(=O)c1,inactive
15,Cc1cc(C)n2nc(/C(C#N)=C/c3ccccn3)c(C#N)c2n1,"inconclusive [inhibitor, single point]"
16,CCc1cccc(NC(=S)Nc2cccc3ccccc23)c1,"inconclusive [inhibitor, single point]"
17,CCOc1ccc(-c2nnc(-c3ccco3)o2)cc1,"inconclusive [inhibitor, partial curve]"
18,CC(/C=C/c1ccccc1)=N\NC(=O)c1cc(C)nc2ccccc12,inactive
19,Clc1ccc(COn2c(-c3ccc(Cl)cc3Cl)nc3ncccc32)cc1,active: 10 µM
20,CN(C)S(=O)(=O)c1ccc2c(c1)N(CC(=O)Nc1ccc(F)cc1)C(=O)CS2,inactive
21,CCN(CCCC(=O)c1ccc(F)cc1)CCc1ccccc1,"inconclusive [inhibitor, partial curve]"
22,O=C(NNc1nc(-c2ccc(F)cc2)cs1)c1ccccc1,"inconclusive [inhibitor, partial curve]"

row,SMILES,Potency
1,C[C@H]1Cn2cnc(C(=O)Nc3ccccc3)c2C(=O)N1,inactive
2,O=C(CCCC1=NS(=O)(=O)c2ccccc2N1)OCc1ccc(Cl)cc1,"inconclusive [inhibitor, single point]"
3,C=CCOc1ccc(C2C(C#N)=C(N)N(Nc3ccccc3)C3=C2C(=O)CC(C)(C)C3)cc1OC (centres undefined),"inconclusive [inhibitor, single point]"
4,CCOc1cc(/C=C2/C(=O)NN(c3cccc(Cl)c3)C2=O)ccc1O,"inconclusive [inhibitor, full curve, poor fit]"
5,Cc1nc(NC(=O)c2ccc(Br)s2)sc1C(=O)N(C)C,inactive
6,CC1Cc2ccccc2N1S(=O)(=O)c1cccc(C(=O)N2Cc3ccccc3CC2C(N)=O)c1 (centres undefined),"inconclusive [inhibitor, single point]"
7,CSc1ccc(C(=S)N2CCCCCC2)cc1,"inconclusive [inhibitor, single point]"
8,COC(=O)C1(C(O)C(=O)c2ccc(C)cc2C)CCCCC1 (centres undefined),"inconclusive [inhibitor, partial curve, poor fit]"
9,CCN(C(=O)c1ccc(C(C)(C)C)cc1)c1nnc(Cn2nnc3ccccc32)s1,active: 5.01 µM
10,Cc1ccccc1CC(=O)OCC(=O)Nc1ccc(C)c(S(=O)(=O)N2CCCCC2)c1,"inconclusive [inhibitor, single point]"
11,CCN(CC)c1cnn(C/C(=N\OC)c2ccc(Cl)cc2)c(=O)c1Br,"inconclusive [inhibitor, partial curve, poor fit]"
12,COc1ccc(OCc2nc3ccccc3[nH]2)cc1,"inconclusive [inhibitor, partial curve, poor fit]"
13,C[C@H]1C(c2ccc(F)cc2)=NN(c2ccccc2)[C@@H]1CO,"inconclusive [inhibitor, single point]"
14,CCOc1ccc2nc(N3CCCC(C(=O)Nc4ccc(OC)c(Cl)c4)C3)sc2c1 (centres undefined),inactive
15,Cc1sc2nc(Cc3ccccc3)[nH]c(=O)c2c1-c1ccccc1,inactive
16,CCC(=O)Nc1nc2ccccc2n1Cc1ccccc1Cl,"inconclusive [inhibitor, single point]"
17,C/C(Cl)=C/Cn1c(=O)c2c(nc(Br)n2Cc2ccccc2)n(C)c1=O,"inconclusive [inhibitor, partial curve, poor fit]"
18,O=C(c1ccc(-c2cccc([N+](=O)[O-])c2)o1)N1CCN(c2ccc([N+](=O)[O-])cc2)CC1,inactive
19,O=C(C1CCN(S(=O)(=O)c2ccc(Cl)cc2)CC1)N1CCN(c2ccccn2)CC1,"inconclusive [inhibitor, partial curve]"
20,CC(C)N(C(=O)CSc1nnc(Cc2csc(Nc3ccccc3)n2)o1)C(C)C,"inconclusive [inhibitor, single point]"
21,NN=C(c1ccccc1)c1ccccc1,"inconclusive [inhibitor, single point]"
22,Cc1cc(S(=O)(=O)N2CCCOC2CNC(=O)C(=O)NCc2cccs2)ccc1F (centres undefined),"inconclusive [inhibitor, partial curve, poor fit]"

row,SMILES,Potency
1,Fc1ccc(Nc2nc(SCc3ccccc3F)nc3ccccc23)cc1,"inconclusive [inhibitor, partial curve, poor fit]"
2,O=C(NCC(c1ccco1)N1CCN(c2ccccc2F)CC1)c1ccco1 (centres undefined),"inconclusive [inhibitor, partial curve, poor fit]"
3,COc1ccc(C(=O)CCC(=O)NCCc2c[nH]c3ccccc23)cc1,"inconclusive [inhibitor, partial curve]"
4,COc1ccc([C@H]2C[C@H](n3cc(C4CC4)nn3)[C@@H](O)CN2CC2CCCCC2)cc1,"inconclusive [inhibitor, partial curve, poor fit]"
5,O=c1[nH]c(CCl)nc2cc(-c3ccc(Cl)cc3)sc12,"inconclusive [inhibitor, single point]"
6,Cc1nc(SCc2ccc(Br)cc2)[nH]c(=O)c1C,inactive
7,CC(OC(=O)c1cc(S(=O)(=O)N(C)c2ccccc2)ccc1Cl)C(=O)Nc1ccc2c(c1)OCCO2 (centres undefined),"inconclusive [inhibitor, partial curve]"
8,CS(=O)(=O)Nc1ccc(-c2ccc3nccn3c2)cc1,inactive
9,Cc1cc(C(=O)NC2CCCc3c2cnn3-c2ccc(C)c(C)c2)n(C)n1 (centres undefined),"inconclusive [inhibitor, partial curve, poor fit]"
10,O=C(CSc1nc(-c2ccccc2)c(-c2ccccc2)o1)Nc1nncs1,"inconclusive [inhibitor, single point]"
11,Cc1ccc(-c2nnn(CC(=O)N(Cc3ccccc3)C(C(=O)NC(C)(C)C)c3ccncc3)n2)o1 (centres undefined),inactive
12,COc1ccc(NS(=O)(=O)c2cccc(C(=O)NCC(c3ccccc3OC)N3CCCC3)c2)cc1 (centres undefined),"inconclusive [inhibitor, full curve, poor fit]"
13,COc1ccc(OC)c(C2C3CN(C(C)C)CC=C3C(C#N)=C(N)C2(C#N)C#N)c1 (centres undefined),inactive
14,CC(C)(C)c1ccc(/C=N/Nc2cccc(C(=O)O)c2)cc1,"inconclusive [inhibitor, partial curve, poor fit]"
15,CCCCc1cc2c(cc1NC(=O)CN1CCCCC1)OCCO2,"inconclusive [inhibitor, partial curve, poor fit]"
16,Cc1ccc(C)c(-n2cc(CNC(C)Cn3cncn3)c(-c3ccccc3)n2)c1 (centres undefined),"inconclusive [inhibitor, single point]"
17,COc1cc2ccccc2cc1C(=O)NC1CCCC1,"inconclusive [inhibitor, single point]"
18,CS(=O)(=O)c1ccc(C(=O)OCC(=O)NC23CC4CC(CC(C4)C2)C3)cc1[N+](=O)[O-],inactive
19,CCN1CCCC1CNC(=O)c1ccc2c(c1)NC(=O)/C(=C\c1ccccc1Cl)S2 (centres undefined),"inconclusive [inhibitor, partial curve, poor fit]"
20,COc1ccc(C2=NNC(c3cccs3)=Nc3ccc(OC)cc32)cc1,"inconclusive [inhibitor, single point]"
